{"source": "patent EP3072511A1", "about": "“The medical use of 3-aryl substituted 1-indanones” (Centrum Badan Molekularnych I Makromolekularnych Polskiej …, priority 2013, dated 2016)", "test_system": "cell line K562 (chronic myelogenous leukemia, human)", "test": "MTT cytotoxicity test, K562 cells", "details": "K562, 48 h, read-out: K562 IC50 after 48h", "data": [{"compound": "COc1cc(OC)c2c(c1)C(=O)CC2c1ccc(Br)cc1", "note": "(centres unmarked) [Compound 3a, 3-(para-bromophenyl) substituted 1-indanone]", "values": [{"measurement": "IC50", "result": 10, "unit": "µM"}]}, {"compound": "COP(=O)(OC)C1C(=O)c2cc3c(cc2C1c1ccccc1)OCO3", "note": "(centres unmarked) [Compound 1a, 2-phosphoryl-3-phenyl substituted 1-indanone]", "values": [{"measurement": "IC50", "result": 100, "unit": "µM"}]}]}
